Laboratory results taken from the supplement of paper PMC8728848.
The list shows a part of the results.

Experiments:
Experiment in all cases: glycan array binding signal (z-score within array); higher = stronger binding
Details in all cases: glycan notation: IUPAC condensed, linker removed
[1] = target: Neu5Ac(a2-3)Gal(b1-4)GlcNAc(b1-3)Gal(b1-4)GlcNAc(b1-3)GalNAc
Method in brief: (§1)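 The Consortium for Functional Glycomics database supplied 3228 glycan arrays, of which those lacking an available protein sequence were dropped. The binding signal, a within-array Z-score, was averaged across arrays of the same protein sequence and across linkers. Negative scores can be read as non-binding.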

[2] = target: Neu5Ac(a2-3)Gal(b1-4)GlcNAc(b1-3)Gal(b1-4)GlcNAc(b1-3)[Neu5Ac(a2-3)Gal(b1-4)GlcNAc(b1-3)Gal(b1-4)GlcNAc(b1-6)]GalNAc
Method in brief: as §1

[3] = target: Neu5Ac(a2-3)Gal(b1-4)GlcNAc(b1-3)Gal(b1-4)GlcNAc(b1-6)[Gal(b1-3)]GalNAc
Method in brief: as §1

[4] = target: Neu5Ac(a2-3)Gal(b1-4)GlcNAc(b1-3)Gal(b1-4)[Fuc(a1-3)]GlcNAc
Method in brief: as §1

[5] = target: Neu5Ac(a2-3)Gal(b1-4)GlcNAc(b1-3)GalNAc
Method in brief: as §1

[6] = target: Neu5Ac(a2-3)Gal(b1-4)GlcNAc(b1-3)[Neu5Ac(a2-3)Gal(b1-4)GlcNAc(b1-6)]GalNAc
Method in brief: as §1

[7] = target: Neu5Ac(a2-3)Gal(b1-4)GlcNAc(b1-6)GalNAc
Method in brief: as §1

[8] = target: Neu5Ac(a2-3)Gal(b1-4)GlcNAc(b1-6)[Gal(b1-3)]GalNAc
Method in brief: as §1

[9] = target: Neu5Ac(a2-3)Gal(b1-4)GlcNAc(b1-6)[Neu5Ac(a2-3)Gal(b1-3)]GalNAc
Method in brief: as §1

[10] = target: Neu5Ac(a2-3)Gal(b1-4)GlcNAc6S
Method in brief: as §1

[11] = target: Neu5Ac(a2-3)Gal(b1-4)[Fuc(a1-3)]GlcNAc
Method in brief: as §1

[12] = target: Neu5Ac(a2-3)Gal(b1-4)[Fuc(a1-3)]GlcNAc(b1-2)Man
Method in brief: as §1

[13] = target: Neu5Ac(a2-3)Gal(b1-4)[Fuc(a1-3)]GlcNAc(b1-3)Gal
Method in brief: as §1

[14] = target: Neu5Ac(a2-3)Gal(b1-4)[Fuc(a1-3)]GlcNAc(b1-3)Gal(b1-4)GlcNAc
Method in brief: as §1

[15] = target: Neu5Ac(a2-3)Gal(b1-4)[Fuc(a1-3)]GlcNAc(b1-3)Gal(b1-4)[Fuc(a1-3)]GlcNAc(b1-3)Gal(b1-4)[Fuc(a1-3)]GlcNAc
Method in brief: as §1

[16] = target: Neu5Ac(a2-3)Gal(b1-4)[Fuc(a1-3)]GlcNAc(b1-3)GalNAc
Method in brief: as §1

[17] = target: Neu5Ac(a2-3)Gal(b1-4)[Fuc(a1-3)]GlcNAc(b1-6)[Gal(b1-3)]GalNAc
Method in brief: as §1

[18] = target: Neu5Ac(a2-3)Gal(b1-4)[Fuc(a1-3)]GlcNAc(b1-6)[Neu5Ac(a2-3)Gal(b1-3)]GalNAc
Method in brief: as §1

[19] = target: Neu5Ac(a2-3)Gal(b1-4)[Fuc(a1-3)]GlcNAc6S
Method in brief: as §1

[20] = target: Neu5Ac(a2-3)Gal6S(b1-4)GlcNAc
Method in brief: as §1

[21] = target: Neu5Ac(a2-3)Gal6S(b1-4)[Fuc(a1-3)]GlcNAc
Method in brief: as §1

Neu5Ac(a2-3)GalNAc = target: Neu5Ac(a2-3)GalNAc
Method in brief: as §1

[22] = target: Neu5Ac(a2-3)GalNAc(b1-4)GlcNAc
Method in brief: as §1

[23] = target: Neu5Ac(a2-3)[GalNAc(b1-4)]Gal(b1-4)Glc
Method in brief: as §1

[24] = target: Neu5Ac(a2-3)[GalNAc(b1-4)]Gal(b1-4)GlcNAc
Method in brief: as §1

[25] = target: Neu5Ac(a2-3)[GalNAc(b1-4)]Gal(b1-4)GlcNAc(b1-3)GalNAc
Method in brief: as §1

[26] = target: Neu5Ac(a2-3)[Neu5Ac(a2-6)]GalNAc
Method in brief: as §1

Neu5Ac(a2-6)Gal = target: Neu5Ac(a2-6)Gal
Method in brief: as §1

[27] = target: Neu5Ac(a2-6)Gal(b1-3)GlcNAc(b1-3)[Gal(b1-4)GlcNAc(b1-6)]Gal(b1-4)Glc
Method in brief: as §1

Neu5Ac(a2-6)Gal(b1-4)Glc = target: Neu5Ac(a2-6)Gal(b1-4)Glc
Method in brief: as §1

[28] = target: Neu5Ac(a2-6)Gal(b1-4)GlcNAc
Method in brief: as §1

[29] = target: Neu5Ac(a2-6)Gal(b1-4)GlcNAc(b1-2)Man
Method in brief: as §1

[30] = target: Neu5Ac(a2-6)Gal(b1-4)GlcNAc(b1-2)Man(a1-3)Man(b1-4)GlcNAc(b1-4)GlcNAc
Method in brief: as §1

[31] = target: Neu5Ac(a2-6)Gal(b1-4)GlcNAc(b1-2)Man(a1-3)[Gal(b1-4)GlcNAc(b1-2)Man(a1-6)]Man(b1-4)GlcNAc(b1-4)GlcNAc
Method in brief: as §1

[32] = target: Neu5Ac(a2-6)Gal(b1-4)GlcNAc(b1-2)Man(a1-3)[GlcNAc(b1-2)Man(a1-6)]Man(b1-4)GlcNAc(b1-4)GlcNAc
Method in brief: as §1

[33] = target: Neu5Ac(a2-6)Gal(b1-4)GlcNAc(b1-2)Man(a1-3)[GlcNAc(b1-2)Man(b1-4)GlcNAc(b1-2)Man(a1-6)]Man(b1-4)GlcNAc(b1-4)GlcNAc
Method in brief: as §1

[34] = target: Neu5Ac(a2-6)Gal(b1-4)GlcNAc(b1-2)Man(a1-3)[GlcNAc(b1-4)][Neu5Ac(a2-6)Gal(b1-4)GlcNAc(b1-2)Man(a1-6)]Man(b1-4)GlcNAc(b1-4)GlcNAc
Method in brief: as §1

[35] = target: Neu5Ac(a2-6)Gal(b1-4)GlcNAc(b1-2)Man(a1-3)[Man(a1-6)]Man(b1-4)GlcNAc(b1-4)GlcNAc
Method in brief: as §1

[36] = target: Neu5Ac(a2-6)Gal(b1-4)GlcNAc(b1-2)Man(a1-3)[Neu5Ac(a2-3)Gal(b1-4)GlcNAc(b1-2)Man(a1-6)]Man(b1-4)GlcNAc(b1-4)GlcNAc
Method in brief: as §1

[37] = target: Neu5Ac(a2-6)Gal(b1-4)GlcNAc(b1-2)Man(a1-3)[Neu5Ac(a2-6)Gal(b1-4)GlcNAc(b1-2)Man(a1-6)]Man(b1-4)GlcNAc(b1-4)GlcNAc
Method in brief: as §1

[38] = target: Neu5Ac(a2-6)Gal(b1-4)GlcNAc(b1-2)Man(a1-3)[Neu5Ac(a2-6)Gal(b1-4)GlcNAc(b1-2)Man(a1-6)]Man(b1-4)GlcNAc(b1-4)[Fuc(a1-6)]GlcNAc
Method in brief: as §1

[39] = target: Neu5Ac(a2-6)Gal(b1-4)GlcNAc(b1-2)Man(a1-6)Man(b1-4)GlcNAc(b1-4)GlcNAc
Method in brief: as §1

[40] = target: Neu5Ac(a2-6)Gal(b1-4)GlcNAc(b1-2)Man(a1-6)[Gal(b1-4)GlcNAc(b1-2)Man(a1-3)]Man(b1-4)GlcNAc(b1-4)GlcNAc
Method in brief: as §1

[41] = target: Neu5Ac(a2-6)Gal(b1-4)GlcNAc(b1-2)Man(a1-6)[GlcNAc(b1-2)Man(a1-3)]Man(b1-4)GlcNAc(b1-4)GlcNAc
Method in brief: as §1

[42] = target: Neu5Ac(a2-6)Gal(b1-4)GlcNAc(b1-2)Man(a1-6)[Man(a1-3)]Man(b1-4)GlcNAc(b1-4)GlcNAc
Method in brief: as §1

[43] = target: Neu5Ac(a2-6)Gal(b1-4)GlcNAc(b1-2)[Neu5Ac(a2-6)Gal(b1-4)GlcNAc(b1-4)]Man(a1-3)[GlcNAc(b1-4)][Neu5Ac(a2-6)Gal(b1-4)GlcNAc(b1-2)[Neu5Ac(a2-6)Gal(b1-4)GlcNAc(b1-6)]Man(a1-6)]Man(b1-4)GlcNAc(b1-4)GlcNAc
Method in brief: as §1

[44] = target: Neu5Ac(a2-6)Gal(b1-4)GlcNAc(b1-2)[Neu5Ac(a2-6)Gal(b1-4)GlcNAc(b1-4)]Man(a1-3)[GlcNAc(b1-4)][Neu5Ac(a2-6)Gal(b1-4)GlcNAc(b1-4)Man(a1-6)]Man(b1-4)GlcNAc(b1-4)GlcNAc
Method in brief: as §1

[45] = target: Neu5Ac(a2-6)Gal(b1-4)GlcNAc(b1-2)[Neu5Ac(a2-6)Gal(b1-4)GlcNAc(b1-6)]Man(a1-6)[Neu5Ac(a2-6)Gal(b1-4)GlcNAc(b1-2)Man(a1-3)][GlcNAc(b1-4)]Man(b1-4)GlcNAc(b1-4)GlcNAc
Method in brief: as §1

[46] = target: Neu5Ac(a2-6)Gal(b1-4)GlcNAc(b1-3)Gal(b1-3)GlcNAc
Method in brief: as §1

[47] = target: Neu5Ac(a2-6)Gal(b1-4)GlcNAc(b1-3)Gal(b1-4)GlcNAc
Method in brief: as §1

B1: Gal 2 (Homo sapiens), P05162 (protein)
chain: MTGELEVKNMDMKPGSTLKITGSIADGTDGFVINLGQGTDKLNLHFNPRFSESTIVCNSLDGSNWGQEQREDHLCFSPGSEVKFTVTFESDKFKVKLPDGHELTFPNRLGHSHLSYLSVRGGFNMSSFKLKE
glycan array binding signal (z-score) [1]: -0.256 | glycan array binding signal (z-score) [2]: -0.218 | glycan array binding signal (z-score) [3]: -0.213 | glycan array binding signal (z-score) [4]: -0.282 | glycan array binding signal (z-score) [5]: -0.029 | glycan array binding signal (z-score) [6]: -0.302 | glycan array binding signal (z-score) [7]: -0.236 | glycan array binding signal (z-score) [8]: -0.191 | glycan array binding signal (z-score) [9]: -0.181 | glycan array binding signal (z-score) [10]: -0.234 | glycan array binding signal (z-score) [11]: -0.284 | glycan array binding signal (z-score) [12]: -0.061 | glycan array binding signal (z-score) [13]: -0.27 | glycan array binding signal (z-score) [14]: -0.229 | glycan array binding signal (z-score) [15]: -0.23 | glycan array binding signal (z-score) [16]: 0.065 | glycan array binding signal (z-score) [17]: -0.193 | glycan array binding signal (z-score) [18]: 0.14 | glycan array binding signal (z-score) [19]: -0.251 | glycan array binding signal (z-score) [20]: -0.225 | glycan array binding signal (z-score) [21]: -0.281 | glycan array binding signal (z-score) (Neu5Ac(a2-3)GalNAc): -0.299 | glycan array binding signal (z-score) [22]: -0.255 | glycan array binding signal (z-score) [23]: -0.272 | glycan array binding signal (z-score) [24]: -0.235 | glycan array binding signal (z-score) [25]: -0.183 | glycan array binding signal (z-score) [26]: -0.272 | glycan array binding signal (z-score) (Neu5Ac(a2-6)Gal): -0.241 | glycan array binding signal (z-score) [27]: -0.245 | glycan array binding signal (z-score) (Neu5Ac(a2-6)Gal(b1-4)Glc): -0.234 | glycan array binding signal (z-score) [28]: -0.254 | glycan array binding signal (z-score) [29]: -0.155 | glycan array binding signal (z-score) [30]: -0.189 | glycan array binding signal (z-score) [31]: -0.145 | glycan array binding signal (z-score) [32]: -0.22 | glycan array binding signal (z-score) [33]: -0.154 | glycan array binding signal (z-score) [34]: -0.169 | glycan array binding signal (z-score) [35]: -0.18 | glycan array binding signal (z-score) [36]: -0.229 | glycan array binding signal (z-score) [37]: -0.18 | glycan array binding signal (z-score) [38]: -0.196 | glycan array binding signal (z-score) [39]: -0.065 | glycan array binding signal (z-score) [40]: -0.209 | glycan array binding signal (z-score) [41]: -0.192 | glycan array binding signal (z-score) [42]: -0.12 | glycan array binding signal (z-score) [43]: -0.284 | glycan array binding signal (z-score) [44]: -0.198 | glycan array binding signal (z-score) [45]: -0.233 | glycan array binding signal (z-score) [46]: -0.068 | glycan array binding signal (z-score) [47]: -0.263
